# Laboratory results published in article PMC4336329 (PLoS ONE, 2015).
# About 2,200 (0.71%) of roughly 310,000 compounds showed an effect of 50% or more. The effect is printed as a negative number. The list shows a part of the results.
# Target: human ether-à-go-go-related gene (hERG) potassium channel (human, UniProt Q12809)
# Assay: primary screen, population patch clamp on CHO cells stably expressing hERG
# Sequence of human ether-à-go-go-related gene (hERG) potassium channel (Q12809 whole entry, looked up): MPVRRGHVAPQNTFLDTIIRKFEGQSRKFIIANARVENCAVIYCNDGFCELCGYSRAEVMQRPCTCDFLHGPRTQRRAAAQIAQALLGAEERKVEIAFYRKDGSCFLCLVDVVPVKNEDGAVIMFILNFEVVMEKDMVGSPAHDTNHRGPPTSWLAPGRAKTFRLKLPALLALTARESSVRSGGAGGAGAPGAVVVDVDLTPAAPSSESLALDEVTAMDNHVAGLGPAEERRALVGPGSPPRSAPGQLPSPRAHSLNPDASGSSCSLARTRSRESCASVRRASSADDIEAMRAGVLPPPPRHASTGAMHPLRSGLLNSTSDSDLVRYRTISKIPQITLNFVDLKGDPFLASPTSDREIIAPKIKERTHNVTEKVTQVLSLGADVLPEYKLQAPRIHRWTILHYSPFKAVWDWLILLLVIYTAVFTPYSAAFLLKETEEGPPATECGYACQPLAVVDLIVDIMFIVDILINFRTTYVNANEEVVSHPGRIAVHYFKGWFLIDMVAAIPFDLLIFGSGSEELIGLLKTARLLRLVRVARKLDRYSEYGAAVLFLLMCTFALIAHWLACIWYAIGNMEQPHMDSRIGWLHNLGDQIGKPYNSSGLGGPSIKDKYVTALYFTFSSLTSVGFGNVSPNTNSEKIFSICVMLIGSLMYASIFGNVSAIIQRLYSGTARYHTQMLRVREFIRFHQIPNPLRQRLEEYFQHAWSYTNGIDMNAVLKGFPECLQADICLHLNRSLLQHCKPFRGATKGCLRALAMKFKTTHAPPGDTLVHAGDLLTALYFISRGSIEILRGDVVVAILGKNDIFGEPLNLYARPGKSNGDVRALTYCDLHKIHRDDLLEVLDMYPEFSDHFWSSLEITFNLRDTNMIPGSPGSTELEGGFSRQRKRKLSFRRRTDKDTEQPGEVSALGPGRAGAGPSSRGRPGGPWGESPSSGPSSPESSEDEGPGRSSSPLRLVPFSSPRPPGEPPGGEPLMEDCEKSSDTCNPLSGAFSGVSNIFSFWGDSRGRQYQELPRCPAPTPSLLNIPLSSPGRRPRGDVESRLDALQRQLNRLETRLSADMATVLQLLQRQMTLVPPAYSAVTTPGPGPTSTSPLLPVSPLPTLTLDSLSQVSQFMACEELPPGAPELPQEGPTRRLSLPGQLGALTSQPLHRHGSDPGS
row,Compound,"hERG current change (%, negative = inhibition) at 1uM"
1,CCOc1cccc(C(=O)NNC(=O)C2C3C=CC(C3)C2C(=O)O)c1 (centres unmarked),6.67%
2,COc1ccc(Cl)cc1NC(=O)C1CC(c2ccccc2O)=NO1 (centres unmarked),12.5%
3,Cc1ccc(-c2nnc(Nc3ccc(O)cc3)c3ccccc23)cc1S(=O)(=O)NCCO,11.2%
4,CCN(CC)c1ccc(NC(=O)COC(=O)CSc2ccc(Br)cc2C)cc1.O=S(=O)(O)O,2.63%
5,Cc1nc(NC(=O)c2cccnc2)ccc1Br,-3.97%
6,CCN(c1ccccc1)S(=O)(=O)c1cc(C(=O)Nc2ccccc2Cl)ccc1F,14.3%
7,O=C(CCC(=O)N1CCOc2ccc(Cl)cc21)NCCCN1CCN(c2ccccc2F)CC1,-22.2%
8,O=C1O/C(=C/c2ccccc2)c2ccccc21,-0.35%
9,COc1ccc(N2C(=O)CC(Sc3nc4ccccc4s3)C2=O)cc1OC (centres unmarked),10.5%
10,CCOC(=O)C1=C(N)Oc2cc(C)oc(=O)c2C1c1cccnc1 (centres unmarked),13.4%
11,COc1ccc(-c2cc(C(=O)NC3CC3)c3ccccc3n2)cc1,-8.83%
12,CN1CCN(c2ncc(C=O)s2)CC1,13%
13,Cc1cccc(NC(=S)NC(=O)CC2CC(C)(C)OC2=O)c1 (centres unmarked),16.3%
14,Cc1cc(C)nc(N2CCC(C(=O)NCc3cccc(C(F)(F)F)c3)CC2)n1,12.1%
15,C=CCn1c(-c2ccc3ncccc3c2)n[nH]c1=S,15.3%
16,N#Cc1ccccc1OCC(=O)N1N=C(c2cccs2)CC1c1ccco1 (centres unmarked),-1.57%
17,COc1ccc(N2CCN(C(=O)CSc3nnc(NC(=O)C4CCC4)s3)CC2)cc1,11.2%
18,CCN1CCN(CCOc2ccc(Cl)cc2)CC1.O=C(O)C(=O)O,-9.38%
19,COc1ccccc1C(=O)NCCCNC(=O)c1cnccn1,11.3%
20,O=C(Nc1cccc(-n2cnnn2)c1)c1ccoc1COc1ccc(Cl)cc1,19.4%
21,Cc1nnc(SCc2c(Cl)cccc2Cl)n(N)c1=O,9.37%
22,CCOC(=O)C1=C(C)N(C)C(C)=C(C(=O)OCC)C1c1ccc(Cl)cc1,-8.96%

row,Compound,"hERG current change (%, negative = inhibition) at 1uM"
1,CCN1CCN(CCNC(=O)C2CCCN(Cc3nc(-c4cccc(Cl)c4)oc3C)C2)CC1 (centres unmarked),3.86%
2,CC(C)[C@H](NC(=O)NCc1ccco1)C(=O)O,13.8%
3,Nc1c2c(nc3sc4c(c13)CCCCC4)CCCC2,-0.57%
4,O=C(NC1CCCc2ccccc21)c1ccccc1Cl (centres unmarked),12.8%
5,NC(=O)[C@H]1CC2(CC(c3cccc(NC(=O)[C@H]4CCC(=O)N4)c3)=NO2)CN1C(=O)c1ccccc1C(=O)c1ccccc1 (some centres unmarked),8.06%
6,COc1ccc(C(=O)NCc2nnc(SCC(=O)c3ccc(F)cc3)n2C)cc1OC,-5.57%
7,CC(C)C[C@@H](C(=O)NCC1CCCO1)N1C(=O)N2CCc3c([nH]c4ccccc34)[C@@]2(C)C1=O (some centres unmarked),-10%
8,Cc1cc(N2CCOCC2)c(F)cc1C(=O)c1ccccc1,16.1%
9,COc1cccc(CNC(=O)c2ccccc2C(=O)NC(C)(C)C(=O)NCc2cccc(OC)c2)c1,12.8%
10,Cc1ccc(-n2ncc3c(=O)n(CC(=O)N4CCN(C(=O)c5ccco5)CC4)cnc32)cc1,6.22%
11,Cn1nnc(NC(=O)c2cccc([N+](=O)[O-])c2)n1,9.93%
12,O=C(Nc1ncc2c(n1)-c1ccccc1OC2)c1ccc(F)cc1,0.334%
13,O=C(Nc1ccc(Cl)c(Cl)c1)Nc1nnc(CC2=CCCCC2)s1,10.8%
14,COc1ccc(C2/C(=C(/O)c3ccccc3)C(=O)C(=O)N2CCN2CCOCC2)c(OC)c1 (centres unmarked),-9.29%
15,O=C(O)CCn1cc(/C=C2/NC(=S)N(c3ccccc3)C2=O)c(-c2ccccc2)n1,15.7%
16,CCC(=O)Oc1cccc(C(=O)Nc2cccc(NC(=O)c3ccco3)c2)c1,7.24%
17,C=C1CCN([C@@H](Cc2ccccc2)C(=O)NCc2ccc(Cl)cc2)S(=O)(=O)c2ccccc21,9.72%
18,O=C(Cc1ccc(Cl)cc1)N1CCC2(CC1)NCCc1[nH]cnc12,16.9%
19,FC(F)(F)c1cccc(NC(=S)NC(c2ccccc2)c2ccccc2)c1,9.67%
20,Cn1ccnc1SCC(=O)Nc1cc(F)ccc1F,8.25%
21,Cc1nc(NC(=O)c2ccccc2)sc1-c1csc(N)n1,9.83%
22,Cn1c(SCC(=O)NCCc2ccccc2)nnc1-c1ccncc1,16.4%
